# Test results published in PubChem BioAssay AID1508624 (National Center for Advancing Translational Sciences (NCATS), 2021).
# The campaign covered roughly 48,000 compounds. About 120 (0.25%) were called active. Another 4% or so got no clear call; they are omitted. The call rests on the fitted dose curve; in most records, active means well fitted activation curve with a large enough effect; inconclusive means small, poorly fitted or top-dose-only effect, or another doubt; inactive means no such curve, though single readings can be large or run the other way. Some of the results follow.
# Assay: Primary qHTS for Identification of Small Molecule Activators of Huntingtin-Antisense Promoter Activity; further: nearly all actives have a fitted effect of over 55% in size
# Conditions: HEK293 HTT-AS promoter firefly luciferase reporter (activity 0% = vehicle and -100% = no light), 24 h; series mostly up to 57.5 µM; activity change, positive = activation: at the top concentration
# Outline: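 Firefly luciferase readout (Dual-Glo, 10 min RT) after 24 h, 37 °C compound exposure (final up to 57.5 uM) of HEK293 reporter cells cultured 24 h beforehand; PTC124 at 50 uM final as control inhibitor; activity scaled vehicle 0%, zero RLU -100%.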
row,Structure (SMILES),"activity change, positive = activation"
1,COCc1c(C(C)C)nc(C(C)C)c(/C=C/[C@@H](O)C[C@@H](O)CC(=O)O)c1-c1ccc(F)cc1,inactive: -5.4%
2,CC(C)c1ccc(Nc2ncnc3onc(-c4ccc(F)cc4)c23)cc1,inactive: -25.5%
3,COc1cc(NC(=O)N2CCC(CN3CCOCC3)CC2)cc(OC)c1OC,inactive: -1.42%
4,Cc1cc(Cl)ccc1NC(=O)Cn1nnc2sc(-c3ccccc3)cc2c1=O,inactive: -7.07%
5,COc1ccc(OC)c2sc(N3CCN(C(=O)CCS(=O)(=O)c4ccc(F)cc4)CC3)nc12,inactive: -16.6%
6,COC(=O)c1ccc2c(c1)N(Cc1ccc(Cl)cc1)C(=O)c1ccccc1S2,inactive: -28.8%
7,Cc1nc2nc(SCC(=O)NC3CCCCC3)nn2c(C)c1Cc1ccccc1Cl,inactive: -19.8%
8,COCCNc1nc2c(c(=O)n(Cc3cccc(Br)c3)c(=O)n2C)n1C,inactive: 5.54%
9,COc1cccc(N2CCN(C(=O)c3cc4c(=O)oc5ccc(C)cc5c4s3)CC2)c1,inactive: -10.6%
10,CCCCn1nc(NC(=O)c2cccc(Cl)c2)c2cc3cccc(C)c3nc21,inactive: -5.44%
11,CCCn1c2ccccc2c2cnn(CC(=O)N3CCCC(C)C3)c(=O)c21 (configuration not stated),inactive: -15.5%
12,O=C(c1ccc2c(c1)N(Cc1ccc(F)cc1)C(=O)c1ccccc1S2(=O)=O)N1CCCC1,inactive: -23.9%
13,COc1ccccc1Cn1c(CNS(=O)(=O)c2ccc(C(C)C)cc2)nc2cccnc21,inactive: -24%
14,CCC(=O)N1CCCc2cc(S(=O)(=O)N3CCC(C(=O)NC4CCCCC4)CC3)ccc21,inactive: -10.7%
15,COc1ccc(CNC(=O)c2nc(SCc3ccccc3F)ncc2Cl)cc1,inactive: -33.5%
16,CC(NC(=O)c1ccc2c(c1)CCN2S(=O)(=O)c1ccccc1)c1ccccc1 (configuration not stated),inactive: -15.4%
17,COc1ccccc1NC(=O)c1oc2ccccc2c1NC(=O)c1cccc(OC)c1OC,inactive: -37.7%
18,CCC(Oc1ccccc1)C(=O)Nc1cc(-c2cccc(C)c2)nn1-c1ccccc1 (configuration not stated),inactive: 5.42%
19,O=C(O)CCNc1cc(N2CCc3ccccc3CC2)nc(-c2ccccn2)n1,inactive: -10.2%
20,COc1ccc(-n2c(C)c(C(C)=O)c3cc(OC(=O)COc4ccccc4)ccc32)cc1,inactive: -22.8%
21,CCCS(=O)(=O)N1CC(=O)N(c2cccc(Cl)c2C)C(C)(C(=O)NC2CCCC2)C1 (configuration not stated),inactive: -10.4%
22,Cc1cc(-c2ccc(C)c(S(=O)(=O)NCc3cccc(Br)c3)c2)on1,inactive: -32.4%
23,Cc1cc(C)cc(OCC(=O)N(Cc2cccs2)c2ccc(Cl)cc2)c1,inactive: -32.8%
24,CCCCCn1c(CCNC(=O)c2ccc(F)cc2)nc2ccccc21,inactive: -21.3%

row,Structure (SMILES),"activity change, positive = activation"
1,Fc1ccc(-c2nn(-c3ccccc3Cl)c3c2cnc2ccccc23)cc1,inactive: -28.1%
2,Cc1ccc2onc(CC(=O)N3CCN(c4cc(Cl)ccc4C)CC3)c2c1,inactive: -36.6%
3,COc1ccc(-n2nc(C(=O)N3CCN(c4cccc(C)c4C)CC3)c3c4ccccc4n(C)c3c2=O)cc1Cl,inactive: -15.1%
4,Cc1ccc(CNC(=O)Cc2c(C)c3c(cc(C)c4c(C)coc43)oc2=O)cc1,inactive: -6.37%
5,COc1cccc(CNC(=O)Cn2ncn3nc(-c4cccs4)cc3c2=O)c1OC,inactive: 8.26%
6,CC=CC1=C(C(=O)O)N2C(=O)[C@H](NC(=O)[C@H](N)c3ccc(O)cc3)[C@@H]2SC1,inactive: -49%
7,COc1cccc(C(=O)c2c(N)c(-c3nc(-c4ccccc4)cs3)c3ccccn23)c1,inactive: 3.4%
8,Cc1cccc(-n2c(=O)c3c(c4cc(C)ccc4n3C)n(CC(=O)N3CCCC3)c2=O)c1,inactive: -21.9%
9,CNC(=O)[C@H](CC1=CN=C2C=CCC=C12)NC(=O)[C@@H](CC(=O)NO)CC(C)C,inactive: -21.4%
10,O=C(CN1C(=O)COc2ccccc21)NCCc1ccc(Cl)cc1,inactive: -7.09%
11,CCOc1ccc(N(CC)S(=O)(=O)N2CCCC(C(=O)Nc3ccc(C(C)=O)cc3)C2)cc1 (configuration not stated),inactive: -26.2%
12,Cc1ccc(CNC(=O)c2ccc(NC(=O)N3CCSc4ncccc43)cc2)cc1,inactive: -4.36%
13,CCc1ccc(-n2c(=O)c3c4c(sc3n(CC(=O)N3CCCCC3CC)c2=O)CCC4)cc1 (configuration not stated),inactive: -26.8%
14,Cc1ccc(NC(=O)Cn2c(=O)n(Cc3nc(C)no3)c(=O)c3ccccc32)c(Cl)c1,inactive: -8.26%
15,Cc1cccc(C)c1OCCCn1c(CCNC(=O)C2CCCCC2)nc2ccccc21,inactive: -33.6%
16,CCc1ccc(NC(=O)CN2C(=O)C(c3ccc(Cl)cc3)=NC23CCCCC3)cc1,inactive: -32.6%
17,CCOc1ccccc1NC(=O)c1nc(SC(C)C)ncc1Cl,inactive: 0%
18,Cc1c(CNC2CCCCC2)c(C(=O)O)c(C)n1Cc1cccc(Cl)c1,inactive: -18%
19,Cc1c(C(=O)Nc2cccc(Cl)c2)sc2nc3n(c(=O)c12)N=C(c1cccc(Br)c1)CS3,inactive: -28%
20,Cc1ccccc1Nc1c(-c2cc(Br)ccc2F)nc2ccccn12,inactive: -15.9%
21,CCOC(=O)C1CCC(CN(Cc2ccccc2)S(=O)(=O)c2ccc(Br)cc2)CC1 (configuration not stated),inactive: -11%
22,Cc1cccc(/C=C(\C#N)c2nc3ccccc3c(=O)[nH]2)c1,inactive: -17.3%
23,COc1cc(NC(=O)CCS(=O)(=O)c2ccc3c(c2)CC(=O)N3C)cc(OC)c1OC,inactive: 3.73%
